According to article PMC4336329 (PLoS ONE, 2015):
Out of some 310,000 compounds screened, about 14,000 (4.5%) showed an effect of 50% or more. Effects have a minus sign here. The list shows a part of the results.

The compounds below were run against human ether-à-go-go-related gene (hERG) potassium channel (human, UniProt Q12809) (assay: primary screen, population patch clamp on CHO cells stably expressing hERG).
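Further: peak tail current of the secondary pulse compared with the same well before compound.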

Sequence of human ether-à-go-go-related gene (hERG) potassium channel (Q12809 whole entry, looked up): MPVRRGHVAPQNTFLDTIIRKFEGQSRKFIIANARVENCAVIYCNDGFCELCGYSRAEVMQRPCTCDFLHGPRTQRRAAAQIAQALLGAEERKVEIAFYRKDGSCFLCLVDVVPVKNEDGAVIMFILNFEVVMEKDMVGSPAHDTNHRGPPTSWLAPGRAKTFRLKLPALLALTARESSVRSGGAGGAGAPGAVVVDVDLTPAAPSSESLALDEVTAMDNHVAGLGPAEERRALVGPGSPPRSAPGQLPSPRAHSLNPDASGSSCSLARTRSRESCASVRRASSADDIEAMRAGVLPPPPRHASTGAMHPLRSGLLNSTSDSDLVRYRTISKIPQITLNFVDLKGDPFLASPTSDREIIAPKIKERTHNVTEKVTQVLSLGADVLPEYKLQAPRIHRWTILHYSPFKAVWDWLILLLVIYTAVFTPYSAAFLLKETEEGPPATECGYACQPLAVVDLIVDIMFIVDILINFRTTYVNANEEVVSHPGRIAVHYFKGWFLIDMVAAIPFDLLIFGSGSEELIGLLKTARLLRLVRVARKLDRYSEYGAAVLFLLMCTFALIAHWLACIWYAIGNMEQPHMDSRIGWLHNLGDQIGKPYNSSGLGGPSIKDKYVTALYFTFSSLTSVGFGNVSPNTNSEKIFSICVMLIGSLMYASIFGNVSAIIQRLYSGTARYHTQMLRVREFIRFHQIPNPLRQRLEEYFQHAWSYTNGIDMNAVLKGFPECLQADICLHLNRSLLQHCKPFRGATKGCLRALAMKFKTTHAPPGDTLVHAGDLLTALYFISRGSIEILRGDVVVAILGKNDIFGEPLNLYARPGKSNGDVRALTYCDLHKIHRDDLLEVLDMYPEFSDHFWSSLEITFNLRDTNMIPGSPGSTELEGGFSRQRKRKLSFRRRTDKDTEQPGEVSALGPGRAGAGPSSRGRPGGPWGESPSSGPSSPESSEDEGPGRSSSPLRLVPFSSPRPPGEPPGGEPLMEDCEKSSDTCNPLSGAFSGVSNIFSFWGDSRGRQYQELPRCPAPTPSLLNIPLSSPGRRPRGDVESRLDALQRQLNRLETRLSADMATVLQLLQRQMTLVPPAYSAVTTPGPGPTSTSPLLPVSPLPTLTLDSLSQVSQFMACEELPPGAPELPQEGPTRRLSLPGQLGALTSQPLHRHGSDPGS

| Compound | hERG current change (%, negative = inhibition) at 10uM |
| --- | --- |
| CCOC(CCNC(=O)CCC(=O)Nc1ccc2nc(N3CCN(C)CC3)cc(C)c2c1)OCC | 14% |
| COc1ccc(CNC(=O)Cn2nnc3ccccc3c2=O)cc1 | 10.8% |
| CC(=O)Nc1ccc(S(=O)(=O)Nc2cc(-c3ccccc3)nn2C)cc1 | 18.5% |
| COc1ccccc1-n1cc(-c2ccccc2)c2c(=S)nc[nH]c21 | 16.5% |
| COCc1[nH][nH]c(=O)c1C=Nc1ccc(F)cc1F | 0.597% |
| CCOC(=O)c1cnc(-c2ccccc2)nc1Oc1ccc(C)cc1 | 12.2% |
| O=c1cc(C(F)(F)F)[nH]c(=O)n1C1CCCCC1 | -15.1% |
| COc1ccc(S(=O)(=O)N2CCC(C(=O)N[C@@H](C)C(=O)N3CCCCCC3)CC2)cc1 | -17.1% |
| Cc1ccc(CN(CC(=O)NCc2ccccn2)S(=O)(=O)c2ccccc2)cc1 | -23.9% |
| CCOC(=O)CSc1ccc(C(=O)NCCN2CCOCC2)cc1[N+](=O)[O-] | 12.6% |
| C=CC[N+](C)(C)CCCNC(=O)/C=N/O.[I-] | 13.4% |
| COCCN(Cc1ccccc1)C(=O)c1cccc(S(=O)(=O)N2CCCc3ccccc32)c1 | -21.2% |
| CN(CC(=O)Nc1cccc(F)c1)C(=O)c1ccc2c(c1)NC(=O)CS2 | -12.1% |
| COc1ccc(C(=O)Nc2oc(-c3ccccc3)c(-c3ccccc3)c2C#N)cc1OC | 9.54% |
| COC(=O)c1c(C)[nH]c(C(=O)C(C)OC(=O)c2cnc(C)cn2)c1C (centres unmarked) | 10.5% |
| Cc1occc1C(=O)NCCCCc1ccccc1 | 9.01% |
| c1ccc2[nH]c(SCc3cn4ccccc4n3)nc2c1 | -28.3% |
| O=C(Nc1ccc(OCC(F)(F)C(F)F)c(C(F)(F)F)c1)c1ccc(Cl)cc1 | 4.62% |
| Cc1ccsc1/C=N/NC(=O)c1nnn(-c2nonc2N)c1C | -0.0286% |
| O=C(CN1C(=O)C2C3C=CC(C3)C2C1=O)Nc1ccc(S(=O)(=O)N2CCCCC2)cc1 (centres unmarked) | -7.32% |
| Cc1onc(-c2ccccc2)c1C(=O)N1CCCN2C(=O)c3ccccc3C21 (centres unmarked) | -25.9% |
| CCC/C=C1/CCCOC(C(=O)NCCNCCO)(C(F)(F)F)C1 (centres unmarked) | 20.4% |

| Compound | hERG current change (%, negative = inhibition) at 10uM |
| --- | --- |
| CCOC(=O)c1sc(/N=C/C2=C(O)CC(C)(C)CC2=O)c(C(=O)OCC)c1C | -4.12% |
| CCOC(=O)C1CCN(c2ncnc3c2cnn3-c2ccc(Cl)cc2)CC1 | -0.685% |
| CCCCn1c(=O)[nH]c(=O)c2c1nc(-c1ccc(OCC)cc1)n2CC | 1.27% |
| COC(=O)c1ccc(CNC(=O)COC(=O)CCN2C(=O)C3CC=CCC3C2=O)cc1 (centres unmarked) | 0.667% |
| COc1ccc(Cl)c2c1[nH]c1nc(SCc3cccnc3)nnc12 | 22.1% |
| COc1cccc(-c2nc(CC(=O)O)cs2)c1OC | 14.9% |
| O=C(O)C1C2C=CC(O2)C1C(=O)NCc1ccccc1Br (centres unmarked) | 16.7% |
| COc1cc(C2C(C(=O)c3ccco3)=C(O)C(=O)N2c2cc(C)on2)cc(Br)c1O (centres unmarked) | 6.84% |
| CCCCc1cc(=O)oc2cc(OCC(=O)NCc3ccccn3)ccc12 | -38.3% |
| CCn1nc(C(=O)OCC(=O)N2c3ccccc3CC2C)c2ccccc2c1=O (centres unmarked) | -11.9% |
| CCOC(=O)C(=CNc1cccnc1Oc1ccc(C)c2c1CCC2)C(=O)OCC | -5.67% |
| COc1ccc(S(=O)(=O)N2CCN(c3ncccn3)CC2)cc1OC | -4.15% |
| CCOc1ccc(NC(=S)NC(=O)C2CCCC2)cc1 | 3.43% |
| Nc1ncc(CCN2CCOCC2)c(-c2ccc(F)cc2)n1 | 13.4% |
| COC(=O)c1cc(-c2cccc(OC)c2)on1 | 8.04% |
| CCCc1cc(=O)[nH]c(SCc2cc(=O)oc3cc(C)c(C(C)C)cc23)n1 | -26.8% |
| C[C@@]12CCC=C[C@H]1[C@H](c1ccc3ccccc3c1)N(Cc1ccccc1)C2=O | 8.39% |
| COc1cccc(-c2ccc(NC(=O)C3CCCN(Cc4cnn(C(C)C)c4)C3)cc2)c1 (centres unmarked) | -79.7% |
| Cc1cc(OCc2ccc(F)cc2)nc(-c2ccccc2O)n1 | 3.2% |
| COc1ccc(OCC(=O)N(Cc2cccs2)C2CCS(=O)(=O)C2)cc1 (centres unmarked) | -6.75% |
| Cc1ccc(C(=O)C2=C(O)C(=O)N(CCCN(C)C)C23C(=O)N(C)c2ccccc23)o1 (centres unmarked) | 6.71% |
| Cc1nn(CC(=O)OCC(=O)c2ccc(OC(F)F)cc2)c(C)c1[N+](=O)[O-] | -10.1% |
